From PubChem BioAssay AID1963576 (National Center for Advancing Translational Sciences (NCATS), 2024)
In all, about 46,000 compounds went through this assay and about 60 (0.1%) were called active. Another 3% or so got no clear call; they are omitted. The call rests on the fitted dose curve; in most records, active means well fitted inhibition curve with a large enough effect; inconclusive means small, poorly fitted or top-dose-only effect; inactive means no such curve, though single readings can be large or run the other way. This is one part of the list.

Assay: Primary qHTS assay for Inhibitors of ovarian cancer metastasis using an organotypic tumor microenvironment (TME) model. Further: nearly all actives have a fitted effect of over 65% in size.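 On activity change, negative = inhibition: plate controls were DMSO wells for no effect and tomatine positive control wells for full effect.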
Conditions: SKOV3ip1-GFP adhesion/invasion on 3D omental model, fluorescence; series mostly up to 45.8 µM; activity change, negative = inhibition: at the top concentration
Outline: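 A 3D layer of primary human omental fibroblasts, mesothelial cells, fibronectin and collagen I, grown 48 hr, received SKOV3ip1-GFP cells in serum-free medium plus compounds at 0.36-46 umol/L. After 2 hr RT and 16 hr 37 C, fixed adherent GFP cells were counted; normalized to DMSO and tomatine.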
For CCCS(=O)(=O)Nc1cc2c(cc1NCc1ccccc1)n(C)c(=O)n2C, the “activity change, negative = inhibition” value was inactive: -25.7%. For Cc1ccc2cccc(NC(=O)C(C)(C)Oc3ccc(Br)cc3)c2n1, the “outcome” value was “inactive”. With CCOc1ccc(NC(=O)CCS(=O)(=O)c2ccc3c(c2)n(C)c(=O)c(=O)n3C)cc1 the “outcome” value was “inactive”. With Cc1ccc(NC(=O)CCS(=O)(=O)c2cccc3nsnc23)c(C)c1 the “outcome” value was “inactive”. For CCn1cc2nc(SCc3ccccc3F)n(Cc3ccc(C)cc3)c(=O)c2n1, the “activity change, negative = inhibition” value was inactive: -1.64%. In the case of CCN(Cc1ccccc1)C(=O)CN1C(=O)COc2ccc(S(=O)(=O)N3CCCCCC3)cc21, the “activity change, negative = inhibition” value was inactive: -3.51%. With CCOC(=O)c1ccccc1NC(=O)Cn1c2ncccc2c(=O)n1-c1ccccc1 the “outcome” value was “inactive”. In the case of CCOCCCn1c(SCC(=O)Nc2ccc(OC)cc2OC)nc2ccccc2c1=O, the “activity change, negative = inhibition” value was inactive: 5.68%. In the case of COc1cccc(C(=O)c2cn(CC(=O)Nc3cccc(C)c3C)c3nc(C)ccc3c2=O)c1, the “activity change, negative = inhibition” value was inactive: -4.78%. In the case of Cc1ccc(C)c(N2CCN(Cc3nnc(-c4ccccc4)o3)CC2)c1, the “activity change, negative = inhibition” value was inactive: -23.2%. For COc1cc(-c2nnc(SCCOc3ccc(C)c(Cl)c3)o2)cc(OC)c1OC, the “activity change, negative = inhibition” value was inactive: -17.4%. With CCOC(=O)CSc1nc2ccc(NC(=O)c3ccccc3)cc2s1 the “activity change, negative = inhibition” value was inactive: -14.8%. In the case of Cc1ccc(CN2CCc3nc(SCC(=O)Nc4cccc(C)c4C)[nH]c(=O)c3C2)cc1, the “activity change, negative = inhibition” value was inactive: -6.32%. For CCc1ccc(C(=O)Nc2ccc3nn(-c4ccc(C)c(Cl)c4)nc3c2)cc1, the “outcome” value was “inactive”. With COc1ccc(-c2cn3c(n2)sc2cc(C(=O)Nc4cc(Cl)ccc4C)ccc23)cc1 the “outcome” value was “inactive”. With Cc1cccc(C)c1NC(=O)Cn1nc(C)c2sc3ccccc3c2c1=O the “activity change, negative = inhibition” value was inactive: 6.98%. For COc1ccc2oc(-c3ccc(C)c(NC(=O)Cc4ccc(Cl)cc4)c3)nc2c1, the “outcome” value was “inactive”. For Cc1nc2cc(-c3ccccc3)nn2c(C)c1CCC(=O)N1CCN(c2ccccc2)CC1, the “outcome” value was “inactive”. In the case of Cc1ccccc1CN1CCN(CC(=O)NCc2ccccc2Cl)C1=O, the “activity change, negative = inhibition” value was inactive: 0.0512%. For O=C(NCCc1csc(-c2ccc(F)cc2)n1)c1ccc(Br)o1, the “activity change, negative = inhibition” value was inactive: -5.26%. In the case of CCSc1ncc(Cl)c(C(=O)Nc2c(C(=O)c3ccccc3)oc3ccccc23)n1, the “activity change, negative = inhibition” value was inactive: 2.19%. With COc1cc(OC)cc(-c2nc3nc(C)c(CCC(=O)Nc4cc(F)ccc4F)c(C)n3n2)c1 the “outcome” value was “inactive”. In the case of CCOC(=O)c1ccc(NC(=O)Cn2cc(C(=O)c3ccc(Cl)cc3)c(=O)c3ccc(C)nc32)cc1, the “activity change, negative = inhibition” value was inactive: -7.39%. With O=C(CCNS(=O)(=O)c1ccc2c(c1)CCN2C(=O)C1CC1)Nc1ccc(F)cc1F the “activity change, negative = inhibition” value was inactive: -28.1%. For Cc1cccc(NC(=O)c2cc(S(=O)(=O)N3CCC4(CC3)OCCO4)ccc2F)c1, the “outcome” value was “inactive”. In the case of COc1ccc(N2CC(NC(=O)c3ccc(S(=O)(=O)N4CCCCC4)cc3)CC2=O)cc1OC (stereo not drawn), the “outcome” value was “inactive”. In the case of Fc1ccc2c(c1)NC(c1ccncc1)=NC(c1cccs1)=N2, the “activity change, negative = inhibition” value was inactive: 4.19%. With Cc1cccc(-c2nc(Cn3c(SCc4cccc(C(F)(F)F)c4)nc4ccncc43)c(C)o2)c1 the “activity change, negative = inhibition” value was inactive: -25.4%. For Cn1cnc2c(=O)oc3ccc(S(=O)(=O)N4CCN(c5cccc(Cl)c5)CC4)cc3c21, the “activity change, negative = inhibition” value was inactive: 4.45%. For Cc1c(NC(=O)c2cc(=O)c3cc(Cl)ccc3o2)c(=O)n(-c2ccccc2)n1C, the “activity change, negative = inhibition” value was inactive: -24.5%. With COC(=O)c1cc2occc2n1Cc1nc(-c2ccc(C)cc2)oc1C the “activity change, negative = inhibition” value was inactive: -27.2%. In the case of Cc1nc2c(C(=O)NC(C)c3ccccc3)cnn2c(C)c1Cc1ccccc1 (stereo not drawn), the “activity change, negative = inhibition” value was inactive: -0.736%. In the case of CC1=C(CC(=O)O)c2cc(F)ccc2C1=Cc1ccc(S(C)=O)cc1 (stereo not drawn), the “activity change, negative = inhibition” value was inactive: 36.6%. For CCC(=O)Nc1nnc(S(=O)(=O)N2CCc3ccccc32)s1, the “activity change, negative = inhibition” value was inactive: -23.8%. With Cc1ccc2nc(-c3ccc(NC(=O)COc4ccc(Cl)c(C)c4)cc3)sc2c1 the “outcome” value was “inactive”. In the case of CCN(Cc1ccccc1)C(=O)C1CCN(S(=O)(=O)c2c(C)noc2/C=C/c2ccc(C)cc2)CC1, the “activity change, negative = inhibition” value was inactive: 11.9%. For COc1ccc(Nc2cc(C)c3cc(NC(=O)Cc4c(F)cccc4Cl)ccc3n2)cc1, the “outcome” value was “inactive”. For CCCNCC(O)COc1ccccc1C(=O)CCc1ccccc1 (stereo not drawn), the “activity change, negative = inhibition” value was inactive: -8.02%. For Cc1ccc(CCNC(=O)c2ccc(CSCc3ccccc3C)o2)cc1, the “activity change, negative = inhibition” value was inactive: 0.914%. In the case of CCC1CN(C(=O)N2CCC(C(=O)O)CC2)c2cc(C)ccc2O1 (stereo not drawn), the “activity change, negative = inhibition” value was inactive: 3.99%. For CC(=O)c1nn(-c2ccc(OC(F)(F)F)cc2)nc1Nc1ccc(C)cc1, the “activity change, negative = inhibition” value was inactive: -3.27%. In the case of COc1ccccc1CNC(=O)CS(=O)Cc1nc(-c2ccc(OC)c(OC)c2)oc1C (stereo not drawn), the “activity change, negative = inhibition” value was inactive: 3.64%. For CCOC(=O)c1ccc(NC(=O)C2CCN(S(=O)(=O)c3ccc(C)cc3)CC2)cc1, the “activity change, negative = inhibition” value was inactive: 1.6%. For CCOc1ccc(CNS(=O)(=O)c2ccc(-c3cc(C(F)(F)F)on3)s2)cc1, the “activity change, negative = inhibition” value was inactive: -2.11%. In the case of COc1ccccc1CNC(=O)c1sc2nc3n(c(=O)c2c1C)CCC3, the “activity change, negative = inhibition” value was inactive: 19%. For Cc1cccc(N2CCN(C(=O)c3ccc(NC(=O)c4nsc5ccccc45)cc3)CC2C)c1 (stereo not drawn), the “activity change, negative = inhibition” value was inactive: -14.7%. For CCOc1ccc(Cl)cc1C1CC(=O)Nc2cc(OC)c(OC)c(OC)c21 (stereo not drawn), the “activity change, negative = inhibition” value was inactive: 12.9%. In the case of CCOc1ccc(-c2cc(C(=O)NCc3ccc(C)cc3)c3ccccc3n2)cc1, the “activity change, negative = inhibition” value was inactive: 2.39%.
